No constants are given. Whether binding was seen depends on the method and setting. For some of these results: In cells and extracts the contact can be indirect. Some entries that bind do so weakly or less than the wild type. For some of these results: Tags and fused reporters may be left off the sequences shown.
Experiments:
GST-CD73 = molecular target: T1, GST-CD73 (UniProt P21589); assay: pull-down; 5 μg GST-vector or GST-CD73 added into cell lysates, Glutathione-Sepharose 4B beads overnight at 4 °C; SDS-PAGE and western blot; proteins from an E. coli system; only the target purified
T1 sequence: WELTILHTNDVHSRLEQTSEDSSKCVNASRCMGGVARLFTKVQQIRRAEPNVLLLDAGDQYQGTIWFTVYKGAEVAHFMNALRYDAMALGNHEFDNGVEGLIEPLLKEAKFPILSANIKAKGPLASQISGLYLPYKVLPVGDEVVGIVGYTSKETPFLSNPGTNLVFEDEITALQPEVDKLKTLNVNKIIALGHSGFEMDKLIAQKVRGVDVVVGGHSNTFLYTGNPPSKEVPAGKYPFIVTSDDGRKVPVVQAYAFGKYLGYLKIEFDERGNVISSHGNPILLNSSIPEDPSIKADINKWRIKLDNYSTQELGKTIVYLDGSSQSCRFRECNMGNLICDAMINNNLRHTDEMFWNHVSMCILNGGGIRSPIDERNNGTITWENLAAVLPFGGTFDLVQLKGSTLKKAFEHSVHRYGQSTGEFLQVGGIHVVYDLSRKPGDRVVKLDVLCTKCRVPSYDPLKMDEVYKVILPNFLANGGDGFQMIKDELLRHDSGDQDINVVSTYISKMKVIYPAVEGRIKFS

By UniProt entry, the sequences of proteins in these tests, tags left out. Where a name states a change or a piece, a line headed by the entry shows the natural chain unless it says otherwise. Chains listed by the source or under a name are the forms on record and can include a tag or linker.
UniProt P30530: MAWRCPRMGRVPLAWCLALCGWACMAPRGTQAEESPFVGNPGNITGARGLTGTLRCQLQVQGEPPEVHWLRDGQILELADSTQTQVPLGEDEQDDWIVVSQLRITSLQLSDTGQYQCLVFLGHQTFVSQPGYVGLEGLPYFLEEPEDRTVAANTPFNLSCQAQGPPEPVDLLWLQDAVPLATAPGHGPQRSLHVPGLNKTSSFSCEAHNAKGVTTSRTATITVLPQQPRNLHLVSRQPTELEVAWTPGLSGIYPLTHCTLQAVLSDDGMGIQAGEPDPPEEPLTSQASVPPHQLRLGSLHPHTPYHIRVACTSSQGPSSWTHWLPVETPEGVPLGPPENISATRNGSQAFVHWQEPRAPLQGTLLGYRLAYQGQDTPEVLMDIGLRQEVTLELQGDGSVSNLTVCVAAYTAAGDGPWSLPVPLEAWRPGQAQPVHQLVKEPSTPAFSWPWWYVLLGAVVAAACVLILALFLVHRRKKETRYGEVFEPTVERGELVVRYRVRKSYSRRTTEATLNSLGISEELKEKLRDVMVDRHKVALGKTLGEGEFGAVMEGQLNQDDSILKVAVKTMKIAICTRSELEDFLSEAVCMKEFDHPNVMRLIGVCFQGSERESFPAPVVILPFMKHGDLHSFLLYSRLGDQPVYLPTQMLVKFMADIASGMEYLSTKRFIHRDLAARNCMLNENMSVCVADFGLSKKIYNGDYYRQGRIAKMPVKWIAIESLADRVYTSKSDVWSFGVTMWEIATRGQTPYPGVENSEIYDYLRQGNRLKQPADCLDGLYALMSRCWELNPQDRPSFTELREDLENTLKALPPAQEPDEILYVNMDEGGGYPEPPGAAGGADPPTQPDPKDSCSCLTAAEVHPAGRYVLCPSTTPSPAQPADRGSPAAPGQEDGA
Axl-HA E167A (P30530, form named): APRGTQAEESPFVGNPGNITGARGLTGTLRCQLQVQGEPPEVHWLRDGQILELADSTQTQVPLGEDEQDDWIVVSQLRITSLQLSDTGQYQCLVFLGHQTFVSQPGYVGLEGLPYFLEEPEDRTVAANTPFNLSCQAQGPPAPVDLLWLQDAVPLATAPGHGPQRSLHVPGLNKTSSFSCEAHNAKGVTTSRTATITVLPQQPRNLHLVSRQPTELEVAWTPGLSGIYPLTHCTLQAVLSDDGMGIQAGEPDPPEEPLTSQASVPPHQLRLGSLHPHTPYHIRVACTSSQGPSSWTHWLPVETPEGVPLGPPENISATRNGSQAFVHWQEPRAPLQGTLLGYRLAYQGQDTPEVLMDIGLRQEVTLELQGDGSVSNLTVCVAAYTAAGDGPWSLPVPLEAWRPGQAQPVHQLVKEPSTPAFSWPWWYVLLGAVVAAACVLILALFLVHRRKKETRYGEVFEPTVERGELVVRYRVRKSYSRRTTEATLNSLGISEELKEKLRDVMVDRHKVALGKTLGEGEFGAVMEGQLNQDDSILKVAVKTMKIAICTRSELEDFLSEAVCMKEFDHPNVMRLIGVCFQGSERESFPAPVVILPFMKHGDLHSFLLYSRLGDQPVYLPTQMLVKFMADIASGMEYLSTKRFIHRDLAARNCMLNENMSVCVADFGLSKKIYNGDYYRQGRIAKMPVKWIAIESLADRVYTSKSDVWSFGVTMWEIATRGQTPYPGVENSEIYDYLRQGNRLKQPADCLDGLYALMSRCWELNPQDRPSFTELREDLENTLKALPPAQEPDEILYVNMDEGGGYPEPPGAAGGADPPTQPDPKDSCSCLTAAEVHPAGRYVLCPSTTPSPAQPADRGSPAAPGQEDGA
Axl-HA R190A (P30530, form named): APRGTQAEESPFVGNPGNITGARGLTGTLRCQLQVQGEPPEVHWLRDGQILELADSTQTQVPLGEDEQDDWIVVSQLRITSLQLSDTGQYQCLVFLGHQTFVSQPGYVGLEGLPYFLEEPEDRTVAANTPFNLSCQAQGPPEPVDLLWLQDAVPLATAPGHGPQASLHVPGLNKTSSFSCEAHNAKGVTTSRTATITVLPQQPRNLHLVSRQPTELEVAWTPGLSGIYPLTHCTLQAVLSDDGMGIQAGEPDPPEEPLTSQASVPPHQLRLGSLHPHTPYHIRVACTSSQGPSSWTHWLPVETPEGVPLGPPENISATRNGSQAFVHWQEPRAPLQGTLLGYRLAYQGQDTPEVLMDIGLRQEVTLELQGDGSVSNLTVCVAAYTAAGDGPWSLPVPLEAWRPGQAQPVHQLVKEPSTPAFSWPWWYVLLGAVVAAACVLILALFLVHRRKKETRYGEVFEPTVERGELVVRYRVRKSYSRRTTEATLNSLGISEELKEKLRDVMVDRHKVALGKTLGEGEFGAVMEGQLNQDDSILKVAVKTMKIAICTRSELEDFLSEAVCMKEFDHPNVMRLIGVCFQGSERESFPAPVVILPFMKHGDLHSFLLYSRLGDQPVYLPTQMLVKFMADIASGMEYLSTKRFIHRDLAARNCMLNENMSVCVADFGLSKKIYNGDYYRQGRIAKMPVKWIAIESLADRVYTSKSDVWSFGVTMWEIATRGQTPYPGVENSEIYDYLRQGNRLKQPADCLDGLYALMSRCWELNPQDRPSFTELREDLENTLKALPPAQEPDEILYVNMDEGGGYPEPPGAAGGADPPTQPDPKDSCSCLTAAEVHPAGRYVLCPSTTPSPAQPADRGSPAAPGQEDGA
Axl-HA D91A (P30530, form named): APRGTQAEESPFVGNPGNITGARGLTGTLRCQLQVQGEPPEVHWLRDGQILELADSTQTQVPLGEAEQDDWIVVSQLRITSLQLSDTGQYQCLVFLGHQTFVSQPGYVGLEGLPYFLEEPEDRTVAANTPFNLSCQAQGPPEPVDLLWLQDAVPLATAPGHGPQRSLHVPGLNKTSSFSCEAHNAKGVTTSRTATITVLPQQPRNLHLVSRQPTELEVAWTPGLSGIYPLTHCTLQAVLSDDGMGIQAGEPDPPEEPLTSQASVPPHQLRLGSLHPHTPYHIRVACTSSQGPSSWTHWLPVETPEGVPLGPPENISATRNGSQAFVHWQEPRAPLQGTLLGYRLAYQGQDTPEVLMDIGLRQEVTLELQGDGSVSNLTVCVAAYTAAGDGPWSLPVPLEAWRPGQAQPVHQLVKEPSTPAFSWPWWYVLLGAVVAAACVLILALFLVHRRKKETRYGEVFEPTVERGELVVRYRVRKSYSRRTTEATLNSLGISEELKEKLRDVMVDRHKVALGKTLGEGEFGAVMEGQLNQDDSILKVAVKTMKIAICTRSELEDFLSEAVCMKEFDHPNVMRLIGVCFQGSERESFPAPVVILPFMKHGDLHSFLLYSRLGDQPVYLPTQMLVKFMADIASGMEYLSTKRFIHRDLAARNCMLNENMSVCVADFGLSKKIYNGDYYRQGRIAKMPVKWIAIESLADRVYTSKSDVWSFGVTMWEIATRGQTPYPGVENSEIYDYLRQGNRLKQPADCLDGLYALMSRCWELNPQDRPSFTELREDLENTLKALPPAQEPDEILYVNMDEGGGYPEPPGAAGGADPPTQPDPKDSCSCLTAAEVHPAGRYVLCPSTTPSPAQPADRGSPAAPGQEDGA
Axl-HA E90A (P30530, form named): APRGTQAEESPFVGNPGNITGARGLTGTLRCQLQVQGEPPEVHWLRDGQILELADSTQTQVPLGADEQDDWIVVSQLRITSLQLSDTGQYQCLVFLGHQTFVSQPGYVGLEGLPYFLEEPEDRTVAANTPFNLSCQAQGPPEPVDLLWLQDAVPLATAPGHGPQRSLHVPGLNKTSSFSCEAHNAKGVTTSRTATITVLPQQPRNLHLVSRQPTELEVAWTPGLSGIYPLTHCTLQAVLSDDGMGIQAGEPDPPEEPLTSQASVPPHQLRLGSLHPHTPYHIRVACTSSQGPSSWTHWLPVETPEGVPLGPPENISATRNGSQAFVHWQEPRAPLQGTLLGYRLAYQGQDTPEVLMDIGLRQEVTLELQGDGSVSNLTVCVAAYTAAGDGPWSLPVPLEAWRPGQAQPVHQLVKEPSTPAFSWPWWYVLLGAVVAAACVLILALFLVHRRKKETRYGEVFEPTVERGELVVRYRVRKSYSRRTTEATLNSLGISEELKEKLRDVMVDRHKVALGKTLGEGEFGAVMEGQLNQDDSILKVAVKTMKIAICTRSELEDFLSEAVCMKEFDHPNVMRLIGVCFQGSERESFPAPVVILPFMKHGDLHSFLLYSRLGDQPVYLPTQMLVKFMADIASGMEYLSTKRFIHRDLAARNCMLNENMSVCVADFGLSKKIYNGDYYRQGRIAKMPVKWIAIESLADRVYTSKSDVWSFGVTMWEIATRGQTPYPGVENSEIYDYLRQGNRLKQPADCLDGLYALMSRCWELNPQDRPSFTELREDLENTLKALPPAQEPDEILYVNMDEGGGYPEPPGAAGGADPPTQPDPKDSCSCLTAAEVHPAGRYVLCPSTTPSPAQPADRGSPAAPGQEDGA
Axl-HA R55A (P30530, form named): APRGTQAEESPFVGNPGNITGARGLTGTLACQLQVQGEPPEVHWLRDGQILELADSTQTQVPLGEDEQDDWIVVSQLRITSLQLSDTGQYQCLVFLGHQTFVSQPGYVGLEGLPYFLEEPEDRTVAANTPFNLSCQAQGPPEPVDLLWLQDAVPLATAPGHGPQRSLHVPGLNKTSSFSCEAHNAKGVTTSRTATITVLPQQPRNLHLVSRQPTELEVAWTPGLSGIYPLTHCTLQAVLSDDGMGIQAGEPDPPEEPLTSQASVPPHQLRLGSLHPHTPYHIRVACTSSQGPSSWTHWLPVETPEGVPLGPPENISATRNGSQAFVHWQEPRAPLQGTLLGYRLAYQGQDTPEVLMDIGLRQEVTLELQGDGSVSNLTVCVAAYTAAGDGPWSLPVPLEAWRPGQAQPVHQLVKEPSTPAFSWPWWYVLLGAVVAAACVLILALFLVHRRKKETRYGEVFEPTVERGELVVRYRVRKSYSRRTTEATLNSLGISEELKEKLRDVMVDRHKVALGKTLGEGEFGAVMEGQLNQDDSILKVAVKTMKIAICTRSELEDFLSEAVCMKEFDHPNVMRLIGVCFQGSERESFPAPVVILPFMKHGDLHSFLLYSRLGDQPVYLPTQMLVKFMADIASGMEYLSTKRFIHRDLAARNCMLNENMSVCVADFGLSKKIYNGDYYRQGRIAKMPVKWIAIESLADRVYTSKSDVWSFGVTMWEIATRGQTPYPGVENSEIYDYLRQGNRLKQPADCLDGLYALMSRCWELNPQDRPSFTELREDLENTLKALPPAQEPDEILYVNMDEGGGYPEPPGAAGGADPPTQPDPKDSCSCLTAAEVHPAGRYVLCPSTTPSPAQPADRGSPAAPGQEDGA
Axl-HA N43A (P30530, form named): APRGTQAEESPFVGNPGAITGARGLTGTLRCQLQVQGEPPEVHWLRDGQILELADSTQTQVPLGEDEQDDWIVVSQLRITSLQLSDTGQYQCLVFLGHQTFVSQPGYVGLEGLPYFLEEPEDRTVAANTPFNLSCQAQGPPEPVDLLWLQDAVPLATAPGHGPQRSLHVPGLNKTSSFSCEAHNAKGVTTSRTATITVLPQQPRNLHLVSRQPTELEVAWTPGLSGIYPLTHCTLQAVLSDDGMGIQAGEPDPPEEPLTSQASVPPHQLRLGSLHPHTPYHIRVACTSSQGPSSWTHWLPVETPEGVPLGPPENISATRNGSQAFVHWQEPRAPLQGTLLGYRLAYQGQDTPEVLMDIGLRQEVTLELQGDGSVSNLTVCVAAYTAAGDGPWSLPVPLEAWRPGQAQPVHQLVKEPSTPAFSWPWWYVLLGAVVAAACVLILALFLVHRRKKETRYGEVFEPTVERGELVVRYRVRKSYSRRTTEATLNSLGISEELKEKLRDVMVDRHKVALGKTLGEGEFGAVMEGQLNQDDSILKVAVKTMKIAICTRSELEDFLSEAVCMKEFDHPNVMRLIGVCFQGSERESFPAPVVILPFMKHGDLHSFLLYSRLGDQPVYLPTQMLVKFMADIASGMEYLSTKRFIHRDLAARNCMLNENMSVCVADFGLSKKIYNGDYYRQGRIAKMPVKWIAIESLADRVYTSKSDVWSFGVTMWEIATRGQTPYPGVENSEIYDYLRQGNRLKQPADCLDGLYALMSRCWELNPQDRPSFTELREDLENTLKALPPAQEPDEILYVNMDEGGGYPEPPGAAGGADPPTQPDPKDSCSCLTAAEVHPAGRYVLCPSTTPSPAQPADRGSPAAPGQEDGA

Flag-tagged CD73 (human) = molecular target: T2, Flag-tagged CD73 (human) (UniProt P21589); assay: co-IP; HA-tagged Axl (WT or point mutants) and Flag-tagged CD73 coexpressed in HEK293T cells; anti-FLAG agarose; western blot
T2 sequence: T1 sequence

[1] = molecular target: T3, human CD73 (novoprotein, Cat:C446) (human) (UniProt P21589); assay: SPR; Biacore T200; CD73 (20 μg/ml, 10 mM sodium acetate pH 4.5) immobilised on a CM5 chip; Axl Fc Chimera at different concentrations flowed at 30 μl/min for 5 min; 10 mM HEPES, 150 mM NaCl, 1 mM MnCl2, 0.05% Tween 20; both purified
T3 sequence: T1 sequence

[2] = molecular target: T4, CD73 (human (endogenous in A549 and H226)) (UniProt P21589); assay: co-IP; endogenous proteins in A549 and H226 cell lysates; IgG-, Axl- or CD73-bound proteins resolved by SDS-PAGE and western blot
T4 sequence: T1 sequence

Row | binding (Flag-tagged CD73 (human)) | Substance | also measured
1 |  | His-Axl-N (extracellular domain of Axl) (from UniProt P30530 26-451) (domain or fragment) | binding (GST-CD73): binds
2 | no binding | Axl-HA E167A (from UniProt P30530 26-894) (receptor) | 
3 | no binding | Axl-HA R190A (from UniProt P30530 26-894) (receptor) | 
4 | no binding | Axl-HA D91A (from UniProt P30530 26-894) (receptor) | 
5 | no binding | Axl-HA E90A (from UniProt P30530 26-894) (receptor) | 
6 | binds | HA-tagged Axl (WT, full-length Axl) (from UniProt P30530 26-894) (receptor) | 
7 |  | human Axl Fc Chimera (R&D, Cat:154-AL) (from UniProt P30530 26-451) (Fc fusion) | binding [1]: binds
8 |  | Axl (from UniProt P30530 26-894) (receptor) | binding [2]: binds
9 | no binding | Axl-HA R55A (from UniProt P30530 26-894) (receptor) | 
10 | no binding | Axl-HA N43A (from UniProt P30530 26-894) (receptor) | 
